{"source": "paper PMC9911399", "about": "“Two distinct binding modes provide the RNA-binding protein RbFox with extraordinary sequence specificity”", "binders": {"B1": {"name": "UGGACCA (DNA:RNA)", "RNA": "GGGAGACCGGAAUUCAGAUUGUCCUGGACCAUUAAAUCCCGUCGUAGCCACCA", "DNA 1": "CAATCTGAATTCCGGTCTCCC", "DNA 2": "TGGTGGCTACGACGGGATT"}, "B2": {"name": "AGAAUCC (DNA:RNA)", "RNA": "B1 RNA with U25A, G27A, C29U, A31C", "DNA 1": "CAATCTGAATTCCGGTCTCCC", "DNA 2": "TGGTGGCTACGACGGGATT"}, "B3": {"name": "AGGACCG (DNA:RNA)", "RNA": "B1 RNA with U25A, A31G", "DNA 1": "CAATCTGAATTCCGGTCTCCC", "DNA 2": "TGGTGGCTACGACGGGATT"}, "B4": {"name": "UAGCCAA (DNA:RNA)", "RNA": "B1 RNA with G26A, A28C, C30A", "DNA 1": "CAATCTGAATTCCGGTCTCCC", "DNA 2": "TGGTGGCTACGACGGGATT"}, "B5": {"name": "GAGAAUG (DNA:RNA)", "RNA": "B1 RNA with U25G, G26A, C29A, C30U, A31G", "DNA 1": "CAATCTGAATTCCGGTCTCCC", "DNA 2": "TGGTGGCTACGACGGGATT"}, "B6": {"name": "GAUUACG (DNA:RNA)", "RNA": "B1 RNA with U25G, G26A, G27U, A28U, C29A, A31G", "DNA 1": "CAATCTGAATTCCGGTCTCCC", "DNA 2": "TGGTGGCTACGACGGGATT"}, "B7": {"name": "ACCUAUU (DNA:RNA)", "RNA": "GGGAGACCGGAAUUCAGAUUGUCCACCUAUUUUAAAUCCCGUCGUAGCCACCA", "DNA 1": "CAATCTGAATTCCGGTCTCCC", "DNA 2": "TGGTGGCTACGACGGGATT"}, "B8": {"name": "UCGCUUG (DNA:RNA)", "RNA": "B7 RNA with A25U, C27G, U28C, A29U, U31G", "DNA 1": "CAATCTGAATTCCGGTCTCCC", "DNA 2": "TGGTGGCTACGACGGGATT"}, "B9": {"name": "GGAAUUC (DNA:RNA)", "RNA": "B1 RNA with U25G, G27A, C29U, C30U, A31C", "DNA 1": "CAATCTGAATTCCGGTCTCCC", "DNA 2": "TGGTGGCTACGACGGGATT"}, "B10": {"name": "UCUUCGC (DNA:RNA)", "RNA": "B7 RNA with A25U, C27U, A29C, U30G, U31C", "DNA 1": "CAATCTGAATTCCGGTCTCCC", "DNA 2": "TGGTGGCTACGACGGGATT"}, "B11": {"name": "AUCCUGA (DNA:RNA)", "RNA": "B7 RNA with C26U, U28C, A29U, U30G, U31A", "DNA 1": "CAATCTGAATTCCGGTCTCCC", "DNA 2": "TGGTGGCTACGACGGGATT"}, "B12": {"name": "GUGCCUU (DNA:RNA)", "RNA": "B7 RNA with A25G, C26U, C27G, U28C, A29C", "DNA 1": "CAATCTGAATTCCGGTCTCCC", "DNA 2": "TGGTGGCTACGACGGGATT"}, "B13": {"name": "CCAAAGU (DNA:RNA)", "RNA": "B7 RNA with A25C, C27A, U28A, U30G", "DNA 1": "CAATCTGAATTCCGGTCTCCC", "DNA 2": "TGGTGGCTACGACGGGATT"}, "B14": {"name": "GCAAUAA (DNA:RNA)", "RNA": "B1 RNA with U25G, G26C, G27A, C29U, C30A", "DNA 1": "CAATCTGAATTCCGGTCTCCC", "DNA 2": "TGGTGGCTACGACGGGATT"}, "B15": {"name": "ACGGGGG (DNA:RNA)", "RNA": "B7 RNA with C27G, U28G, A29G, U30G, U31G", "DNA 1": "CAATCTGAATTCCGGTCTCCC", "DNA 2": "TGGTGGCTACGACGGGATT"}, "B16": {"name": "GCUGAUU (DNA:RNA)", "RNA": "B7 RNA with A25G, C27U, U28G", "DNA 1": "CAATCTGAATTCCGGTCTCCC", "DNA 2": "TGGTGGCTACGACGGGATT"}, "B17": {"name": "ACCGACA (DNA:RNA)", "RNA": "B7 RNA with U28G, U30C, U31A", "DNA 1": "CAATCTGAATTCCGGTCTCCC", "DNA 2": "TGGTGGCTACGACGGGATT"}, "B18": {"name": "UGUAUCU (DNA:RNA)", "RNA": "B1 RNA with G27U, C29U, A31U", "DNA 1": "CAATCTGAATTCCGGTCTCCC", "DNA 2": "TGGTGGCTACGACGGGATT"}, "B19": {"name": "AUGUCAA (DNA:RNA)", "RNA": "B1 RNA with U25A, G26U, A28U, C30A", "DNA 1": "CAATCTGAATTCCGGTCTCCC", "DNA 2": "TGGTGGCTACGACGGGATT"}, "B20": {"name": "GGGUUCG (DNA:RNA)", "RNA": "B1 RNA with U25G, A28U, C29U, A31G", "DNA 1": "CAATCTGAATTCCGGTCTCCC", "DNA 2": "TGGTGGCTACGACGGGATT"}}, "note": "Where a chain is given by its changes, count along the chain named. Some of the results follow.", "data": [{"target": "T1, RBFOX1 RRM RbFoxmut (Fox-RRM*) (Homo sapiens, UniProt Q9NWB1 109-208, R118D;E147R;N151S;E152T)", "T1 sequence": "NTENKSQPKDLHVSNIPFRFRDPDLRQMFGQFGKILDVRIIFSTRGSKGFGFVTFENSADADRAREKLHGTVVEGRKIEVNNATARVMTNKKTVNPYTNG", "assay": "EMSA; HiTS-Eq, 1 nM pool, 10 min; buffer printed only for the single-RNA assays: 10 mM Tris pH 7.5, 150 mM NaCl, 3.4 mM EDTA, 0.001% NP-40, 30 C", "conditions": "tags: His6 N-terminal (pET28a); label: 5' 32P", "procedure,_shortened": "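Relative association constants, normalised to the cognate motif, were derived by comparing read counts of each RNA species with those of the control reaction. The RNA sequenced was the free fraction, separated by 8% native PAGE after a 10 min equilibration in 50 µL of 1 nM 5′-radiolabelled RNA (7 randomized nucleotides) with increasing concentrations of purified wild-type or mutant RbFox RRM.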", "values": [{"binder": "B1", "binding signal": "0.0665 KA relative to UGCAUGU"}, {"binder": "B2", "binding signal": "0.111 KA relative to UGCAUGU"}, {"binder": "B3", "binding signal": "0.183 KA relative to UGCAUGU"}, {"binder": "B4", "binding signal": "0.0818 KA relative to UGCAUGU"}, {"binder": "B5", "binding signal": "1.5 KA relative to UGCAUGU"}, {"binder": "B6", "binding signal": "0.0988 KA relative to UGCAUGU"}, {"binder": "B7", "binding signal": "0.107 KA relative to UGCAUGU"}, {"binder": "B8", "binding signal": "0.281 KA relative to UGCAUGU"}, {"binder": "B9", "binding signal": "0.112 KA relative to UGCAUGU"}, {"binder": "B10", "binding signal": "0.121 KA relative to UGCAUGU"}, {"binder": "B11", "binding signal": "0.0899 KA relative to UGCAUGU"}, {"binder": "B12", "binding signal": "0.0747 KA relative to UGCAUGU"}, {"binder": "B13", "binding signal": "0.138 KA relative to UGCAUGU"}, {"binder": "B14", "binding signal": "0.0707 KA relative to UGCAUGU"}, {"binder": "B15", "binding signal": "0.118 KA relative to UGCAUGU"}, {"binder": "B16", "binding signal": "0.101 KA relative to UGCAUGU"}, {"binder": "B17", "binding signal": "0.0551 KA relative to UGCAUGU"}, {"binder": "B18", "binding signal": "0.296 KA relative to UGCAUGU"}, {"binder": "B19", "binding signal": "0.105 KA relative to UGCAUGU"}, {"binder": "B20", "binding signal": "0.4 KA relative to UGCAUGU"}]}]}
